Assay results reported in the RNAGym collection of RNA variant scans (doi:10.7554/elife.90254).
Read counts are not given, so values of variants with three or more changes are uncertain.

B1: LINE1-mini (parent)
chain: GGCAGAGCUCAACACAGCGUGGCAAAGUGGCUGUGGCUAGACUGCC

Variants of: B1
Assay: self-cleavage, relative activity (ratio to wild type); higher = more cleavage; in vitro, sequencing; the parent is a self-cleaving ribozyme
Variant C3U A4U A6C G17C U28C U34G C46A has a self-cleavage of 0.05.
With C15A G27U U28C G30A G35U the self-cleavage was 0.01.
In the case of G2C G5A G30A C45A, the self-cleavage is reported as 0.03.
Variant G1C U9G C13A A25U A41G has a self-cleavage of 0.01.
In the case of C13A U20C U32C, the self-cleavage is reported as 0.02.
Variant C18G G35U U43G has a self-cleavage of 0.01.
Variant A6G C10A G30A U43A has a self-cleavage of 0.01.
With U20C G27A C46G the self-cleavage was 0.14.
Variant G2A C10A G21U A26G has a self-cleavage of 0.02.
With U9A C13U C37A C46A the self-cleavage was 0.68.
For G17U U20G C45U, the self-cleavage was 0.02.
Variant A4U G5A G7C A11C has a self-cleavage of 0.07.
For G5A C18G G35A G40C G44U, the self-cleavage was 0.
With G5U A6U C13U A14G G36U the self-cleavage was 0.06.
C23A G33C G44A showed a self-cleavage of 0.02.
Variant A11C G19A G44C has a self-cleavage of 0.01.
C10G G22C G33C G36A A41G showed a self-cleavage of 0.02.
Work on C8G C10G U34C A39U yielded a self-cleavage of 0.02.
In the case of G19U A26C U32C, the self-cleavage is reported as 0.61.
Variant G5C C31A C42G C46A has a self-cleavage of 0.02.
G1U A11U A24G G44U gave a self-cleavage of 0.01.
For G2U G5U G7A C37A C42U, the self-cleavage was 0.01.
With A11C C42U C45G the self-cleavage was 0.01.
In the case of A6U C13A A24G A41C, the self-cleavage is reported as 0.01.
In the case of G2U A12C G36A U38C G40A, the self-cleavage is reported as 0.01.
G2C G5U G27C showed a self-cleavage of 0.01.
Work on G5U C13A G21C U32G G35U yielded a self-cleavage of 0.01.
Work on G5U G7U G29C yielded a self-cleavage of 0.04.
C18U U34G U38A G40A showed a self-cleavage of 0.03.
With A12C C13A G29C G36C C37G the self-cleavage was 0.02.
Variant C18A G22A C31U has a self-cleavage of 0.02.
Variant A14U A16U G19U has a self-cleavage of 0.05.
Variant C3G C10G U20C has a self-cleavage of 0.04.
G2U G29U A41G showed a self-cleavage of 0.04.
With G2U C3A C8G C13A A14C A16U G21A G22U the self-cleavage was 0.05.
U9G C10A G29C gave a self-cleavage of 0.02.
With C8A U32G G36A the self-cleavage was 0.08.
In the case of U20C C31A G44A, the self-cleavage is reported as 0.04.
Variant G2C A4U C46U has a self-cleavage of 0.06.
With G5U C42U C45U the self-cleavage was 0.05.
For A6C C13G A16G U20A G21U G27C G44C, the self-cleavage was 0.03.
For A11G U20G G21U, the self-cleavage was 0.03.
With A26U G33U G44C C45G the self-cleavage was 0.04.
Work on A6C C31U G36A G40A yielded a self-cleavage of 0.02.
G1C C3U U20A C45A showed a self-cleavage of 0.09.
U20G A26C C37G A41U C45A showed a self-cleavage of 0.06.
Variant A6U G17U G19C A24G G36C C37A C42G C45A has a self-cleavage of 0.03.
For C13G C15U C37G, the self-cleavage was 0.19.
In the case of U9G C10U A12G G40U, the self-cleavage is reported as 0.02.
Variant A6G U9A A12G A14C G17U G40A C42U has a self-cleavage of 0.06.
In the case of G7C A11G C18G C37A, the self-cleavage is reported as 0.01.
With C15A G36U C42U U43C C46A the self-cleavage was 0.03.
For G5C G17A U34A G44A, the self-cleavage was 0.02.
Variant A6G A25C C37A has a self-cleavage of 0.02.
With A16C G29U G40U U43C the self-cleavage was 0.
Work on C13G G17U C18G G29U C37U C45U yielded a self-cleavage of 0.01.
Variant G7A C15A G33C C37U has a self-cleavage of 0.4.
In the case of G2C A6C A39C C42U U43G, the self-cleavage is reported as 0.01.
With G7C C8G U9C C18A the self-cleavage was 0.06.
C8A U9C C23A G36C showed a self-cleavage of 0.03.
With G2C G27U G33A C46G the self-cleavage was 0.21.
A11U G17C C37U gave a self-cleavage of 0.04.
Variant C8G C15A G33C has a self-cleavage of 0.07.
With U20A C23A C46U the self-cleavage was 0.32.
In the case of C13A G22C C37U C42A, the self-cleavage is reported as 0.03.
G1A A24C G36U gave a self-cleavage of 0.04.
In the case of A4G A26C G29A U38C C46A, the self-cleavage is reported as 0.08.
G1U A6U G22U C42G gave a self-cleavage of 0.04.
C13U C42U U43C gave a self-cleavage of 0.08.
For A4U C13U U20G A25G G36A A41U C45A, the self-cleavage was 0.02.
With A4U C10A A14G G27C G29U C31A G35A G40U the self-cleavage was 0.01.
For G5A G33A C37G C42G, the self-cleavage was 0.02.
With U9C U28C U34C G36A C42U the self-cleavage was 0.02.
Variant C3U A14C U38A C46G has a self-cleavage of 0.03.
Work on C15G C37A A39G yielded a self-cleavage of 0.02.
With C18A A25U U32A U43C the self-cleavage was 0.03.
Work on G1U C3U G7U C23G C31G G36U G40C yielded a self-cleavage of 0.03.
Work on C10U C13G C23U yielded a self-cleavage of 0.17.
Variant G1U G27A G36A has a self-cleavage of 0.1.
U28G U38A G44U gave a self-cleavage of 0.18.
Variant A4C A16C A24G U28A G36U has a self-cleavage of 0.05.
C3U A14G G33U G40U C45G showed a self-cleavage of 0.07.
Variant U9A C10G A16G G30U has a self-cleavage of 0.01.
Variant G1C C10U A11U U32G U34G A39U has a self-cleavage of 0.01.
C18G C23G U38C U43A showed a self-cleavage of 0.02.
G2C G7A C8G gave a self-cleavage of 0.08.
In the case of A25C G27A U34G C45U, the self-cleavage is reported as 0.11.
In the case of U32A G36A G40C, the self-cleavage is reported as 0.08.
For U9G C23A G29A C45U, the self-cleavage was 0.27.
For G21C G35U G44U, the self-cleavage was 0.05.
With C10A A25C U28A the self-cleavage was 0.05.
Variant G1A G30A A41C has a self-cleavage of 0.12.
For C10G G17C G29U G36U G40A, the self-cleavage was 0.01.
A14C G19A G22U G40C gave a self-cleavage of 0.05.
Variant G2C C31A C45G has a self-cleavage of 0.07.
For C8G U9A C10A C31A, the self-cleavage was 0.02.
C18G U20A A26G showed a self-cleavage of 0.11.
Variant C23G G33U A39G C45A has a self-cleavage of 0.03.
Variant C3U G27C C42A has a self-cleavage of 0.03.
For A4U C8A A41C, the self-cleavage was 0.09.
A25U G27U U28C G30C G35C G40C C46G showed a self-cleavage of 0.01.
For C15G A16G G21C G22A A39U, the self-cleavage was 0.04.
With C8U A25C G36A the self-cleavage was 0.06.
Variant C8A G30A G33U has a self-cleavage of 0.32.
Variant C10A C15G C18A C31G G36C has a self-cleavage of 0.01.
For A12G G27A G40A C42U, the self-cleavage was 0.01.
A4G A12U C23A G29C C45A showed a self-cleavage of 0.03.
A12U G19C G40A gave a self-cleavage of 0.03.
In the case of G1A G5A A39U C46A, the self-cleavage is reported as 0.31.
U20C A24C G29C gave a self-cleavage of 2.53.
In the case of G27C U28A G29U C45A, the self-cleavage is reported as 0.26.
Variant G7A U9A C18A G40A has a self-cleavage of 0.03.
For G7C C8A C13U G35U, the self-cleavage was 0.5.
G21A A26U U32G G35A G36C gave a self-cleavage of 0.02.
Work on A16G G19A A24C C46U yielded a self-cleavage of 0.02.
G17C A41C C45G showed a self-cleavage of 0.03.
G22A U34A C42U gave a self-cleavage of 0.06.
In the case of A12U A25G U32G U43A, the self-cleavage is reported as 0.09.
Variant G27C G29A G35U G36A has a self-cleavage of 0.45.
G7U A11U C45G gave a self-cleavage of 0.01.
G33A G36A C46A showed a self-cleavage of 0.06.
For G1U A11G A39G, the self-cleavage was 0.03.
Work on C3G A11C C18A yielded a self-cleavage of 0.1.
A6C A11C C37G gave a self-cleavage of 0.01.
Variant G5U C15A C23A has a self-cleavage of 0.09.
C3A C8U U20A G27A C46U showed a self-cleavage of 0.38.
In the case of G1U A11G G35C G40C C45G, the self-cleavage is reported as 0.01.
Work on G2C C3U A12C G30U yielded a self-cleavage of 0.03.
G2U A4C C8G G44A showed a self-cleavage of 0.01.
In the case of G2A G27A U28A G35A C42A, the self-cleavage is reported as 0.56.
Variant U9G C10U G17U has a self-cleavage of 0.07.
Work on G17A G19C G27A A41U yielded a self-cleavage of 0.39.
G7A C8A A39C showed a self-cleavage of 0.29.
Variant G1U G17C C42U has a self-cleavage of 0.06.
Work on G2U C8A G27U G33A yielded a self-cleavage of 0.04.
Work on U9C A14G G22C U38G C42A C45A yielded a self-cleavage of 0.
A12U G22A C42U gave a self-cleavage of 0.29.
Variant G36A U38A G40A has a self-cleavage of 0.55.
For C18U G22U U32G C46U, the self-cleavage was 0.33.
G1U A26C U38A gave a self-cleavage of 0.08.
In the case of G7A A16C G19C U20G, the self-cleavage is reported as 0.09.
Work on G1U G5U G36U A41C C46A yielded a self-cleavage of 0.03.
G5A C18G G22U C23U G33U U34C A41U showed a self-cleavage of 1.
C15U G17C A26C gave a self-cleavage of 0.22.
Work on A11C G27C C46A yielded a self-cleavage of 0.05.
Work on G2A C3U A26G C45A yielded a self-cleavage of 0.1.
For C13U G35U G36U C45U, the self-cleavage was 0.18.
A16G G19U C31U C37G gave a self-cleavage of 0.02.
Variant G1U G27C U34A C37U has a self-cleavage of 0.01.
With G27U G30U A39C C46A the self-cleavage was 0.32.
With A11C C13A G21U C46U the self-cleavage was 0.02.
In the case of A12C C13U G21U, the self-cleavage is reported as 0.03.
For A12U G17A G27C C46G, the self-cleavage was 0.05.
With G5U C13A A26C the self-cleavage was 0.06.
With C3A G5A G17A A26C the self-cleavage was 0.2.
C3G A25C U43A C46G gave a self-cleavage of 0.01.
Variant G21A C23G G36A U38G C46G has a self-cleavage of 0.01.
With C23A G30C G40U the self-cleavage was 0.4.
Work on C13U A16C C18A G30U C37G U43C yielded a self-cleavage of 0.2.
In the case of G21C U28G C45G, the self-cleavage is reported as 0.1.
C3U C31A A39G gave a self-cleavage of 0.02.
With C13U G17A G30U the self-cleavage was 0.03.
C10U A14G G17A C23G gave a self-cleavage of 0.03.
For G19C G29A C45A, the self-cleavage was 0.34.
Work on C8A G19C C37A G40A C46U yielded a self-cleavage of 0.01.
C8U C10U A25G gave a self-cleavage of 0.01.
C10G C13G C45A gave a self-cleavage of 0.02.
